According to PubChem BioAssay AID1460 (National Center for Advancing Translational Sciences (NCATS), 2008):
Values joined by “and” are separate entries in the source; they are usually repeats but may differ in a detail not shown here. Equal entries are not always repeated. About 5,800 (2.1%) of roughly 270,000 compounds were called active. The shares of active, inactive and inconclusive entries below differ from those in the screen. Calls follow the shape of the dose curve; as a rule, active = well fitted inhibition curve with a large enough effect; inconclusive = small, poorly fitted or top-dose-only effect; inactive = flat fitted curve, though single readings scatter. Potencies of inconclusive entries are doubtful fits and often do not repeat.
Also: nearly all actives have a fitted effect of over 55% in size.
Potency is read from the fitted curve at half-maximal effect; tags tell the direction and shape of the fitted curve.

Each molecule was assayed against Microtubule-associated protein tau (Homo sapiens) (UniProt P10636) (assay: qHTS for Inhibitors of Tau Fibril Formation, Thioflavin T Binding). Settings: recombinant tau K18 P301L, heparin-induced fibrillization, ThT fluorescence; series mostly up to 57.4 µM.
UniProt P10636, sequence (P10636 whole entry, looked up): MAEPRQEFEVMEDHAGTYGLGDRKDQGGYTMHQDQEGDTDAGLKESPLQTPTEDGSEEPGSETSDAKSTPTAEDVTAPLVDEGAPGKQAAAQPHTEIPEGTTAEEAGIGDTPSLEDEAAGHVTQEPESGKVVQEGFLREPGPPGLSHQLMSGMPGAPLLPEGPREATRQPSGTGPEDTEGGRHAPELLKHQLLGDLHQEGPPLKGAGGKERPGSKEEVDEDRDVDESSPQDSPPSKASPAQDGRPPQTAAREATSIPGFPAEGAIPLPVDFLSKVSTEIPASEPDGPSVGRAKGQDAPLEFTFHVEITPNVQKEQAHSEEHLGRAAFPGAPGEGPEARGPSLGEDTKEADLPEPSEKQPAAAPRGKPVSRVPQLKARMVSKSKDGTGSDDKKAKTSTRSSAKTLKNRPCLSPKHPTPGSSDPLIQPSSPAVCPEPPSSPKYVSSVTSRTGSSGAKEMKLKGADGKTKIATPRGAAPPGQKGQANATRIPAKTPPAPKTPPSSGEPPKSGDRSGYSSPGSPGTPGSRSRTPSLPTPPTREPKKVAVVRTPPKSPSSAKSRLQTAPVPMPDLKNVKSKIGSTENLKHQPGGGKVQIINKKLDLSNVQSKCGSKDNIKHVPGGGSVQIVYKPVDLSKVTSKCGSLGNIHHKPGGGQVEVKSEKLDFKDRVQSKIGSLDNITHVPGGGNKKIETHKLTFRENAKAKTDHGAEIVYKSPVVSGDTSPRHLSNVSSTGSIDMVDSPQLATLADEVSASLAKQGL
How it was run: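 Using a mix of unlabeled (15 uM) and Alexa 594-labeled (0.24 uM) tau K18 P301L, heparin-triggered fibrillization over 6 hr at 37 C was scored by ThT fluorescence.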
`N#CCCn1cc(C=C(C#N)C#N)c(-c2ccc(-c3ccccc3)cc2)n1` was tested, and the Potency was “inactive”.
With `COc1cccc(CNC(=O)CSc2ccc(-c3ccco3)nn2)c1` the Potency was “inactive”.
In the case of `COc1ccc(C(=O)Nc2nc3n(n2)C(c2ccc(F)cc2)C=C(c2ccc(Cl)cc2)N3)cc1` (centres undefined), the Potency is reported as inconclusive: 6.31 µM [inhibitor, partial curve, poor fit].
For `O=C(N/N=C1\CC2CC=CC12)c1ccc(Br)cc1` (centres undefined), the Potency was “inactive”.
For `CC1=C(C#N)C(c2ccc(O)cc2)C(C#N)=C(C)N1`, the Potency was “inactive”.
`CCS(=O)(=O)c1ncc(Cl)c(C(=O)N(Cc2ccccc2)c2ccc(OC)cc2)n1` was tested, and the Potency was inconclusive: 3.55 µM [inhibitor, full curve].
`CS(=O)(=O)N(CC(=O)NCc1ccc2c(c1)OCO2)C1CCCCC1` was tested, and the Potency was “inactive”.
In the case of `Cn1c(NC(=O)/C=C/c2ccco2)cc(=O)n(C)c1=O`, the Potency is reported as inconclusive: 28.2 µM [inhibitor, single point].
With `COc1ccc(/C=C/C(=O)OCCNC(=O)c2ccncc2)cc1OC` the Potency was inconclusive: 10 µM [inhibitor, partial curve, poor fit].
In the case of `CO[C@@]1(NC(=O)Cc2cccs2)C(=O)N2C(C(=O)O)=C(COC(N)=O)CS[C@@H]21`, the Potency is reported as inconclusive: 11.2 µM [inhibitor, partial curve, poor fit].
`CCOC(=O)/C(C#N)=C1\C(=O)N(Cc2ccccc2)c2ccccc21` was tested, and the Potency was active: 35.5 µM.
In the case of `CCOc1ccc2c(c1)c(=O)c(C(=O)c1ccc(C)cc1)cn2Cc1ccccc1OC`, the Potency is reported as inconclusive: 25.1 µM [inhibitor, single point].
With `CNc1nc(-c2c[nH]c3ccccc23)cs1` the Potency was active: 25.1 µM.
For `COc1ccc(C(c2c(C)[nH]n(C(N)=S)c2=O)C(C#N)C#N)cc1` (centres undefined), the Potency was inconclusive: 31.6 µM [inhibitor, partial curve].
With `CC1=C(C(=O)OCC(C)C)C(c2ccc(Br)s2)NC(=O)N1` (centres undefined) the Potency was “inactive”.
In the case of `CC1(OC(=O)CCc2ccccc2)C(=O)C=C2C=C(c3ccc(C#N)cc3)OC=C2C1=O` (centres undefined), the Potency is reported as inconclusive: 12.6 µM [inhibitor, partial curve].
For `CC(C)N(C(=O)CSc1nc(COc2ccccc2)nc2ccccc12)C(C)C`, the Potency was inconclusive: 11.2 µM [inhibitor, partial curve].
In the case of `COCCNC(=O)C(=O)NCC(c1cccnc1)N1CCN(c2ccccc2)CC1` (centres undefined), the Potency is reported as “inactive”.
`CCCCCCN1C=CC(=C/C=C(\C#N)C(=O)OCC)C=C1` was tested, and the Potency was inconclusive: 15.8 µM [inhibitor, partial curve].
With `CN1CC=C2C(C#N)=C(N)C(C#N)(C#N)[C@H](c3cccc(Cl)c3)C2C1` (some centres undefined) the Potency was active: 20 µM.
For `COc1cc(-c2nnc(SCC(=O)N3c4ccccc4Sc4ccccc43)o2)cc(OC)c1OC`, the Potency was “inactive”.
`O=C(c1cc2cc(Br)ccc2o1)N1CCCCC1` was tested, and the Potency was inconclusive: 1 µM [inhibitor, partial curve].
In the case of `CC1C2CC(C/C2=N/NC(=O)c2cccs2)C1(C)C` (centres undefined), the Potency is reported as “inactive”.
`Cc1ccc(OCC(=O)N/N=C\c2ccc(O)cc2)c([N+](=O)[O-])c1` was tested, and the Potency was inconclusive: 25.1 µM [inhibitor, partial curve, poor fit].
With `CC(=O)Nc1ccc2c(c1)nc1n2CCN(C(C)c2ccccc2)C1` (centres undefined) the Potency was inconclusive: 25.1 µM [inhibitor, single point].
With `COc1ccc(NC(=O)CSc2nc3nc(-c4cccs4)cc(C(F)(F)F)c3c(=O)[nH]2)c(OC)c1` the Potency was inconclusive: 10 µM [inhibitor, partial curve].
`Cc1ccc(C)c(NC(=O)Cn2c(=O)n(Cc3ccc4c(c3)OCO4)c(=O)c3ccccc32)c1` was tested, and the Potency was “inactive”.
For `CCN(CC)CCCNC(=S)N(Cc1cccnc1)Cc1cc2cc(C)cc(C)c2[nH]c1=O`, the Potency was inconclusive: 11.2 µM [inhibitor, partial curve].
With `Cc1cccc(C(=O)OCc2cc(=O)n3nc(-c4cccs4)sc3n2)c1` the Potency was inconclusive: 0.398 µM [inhibitor, full curve].
With `O=c1[nH]c(/C=C/c2cccc3ccccc23)nc2ccccc12` the Potency was “inactive”.
`COc1ccc2c(C)cc(SCC(=O)Nc3cc(C(N)=O)cc(C(N)=O)c3)nc2c1` was tested, and the Potency was “inactive”.
`Oc1ccc(N=Nc2ccc3c(c2)OCCO3)c2ncccc12` was tested, and the Potency was inconclusive: 1.41 µM [inhibitor, full curve].
In the case of `COc1cccc(Nc2sc(C(=O)c3ccc(Cl)cc3)c(N)c2C(=O)NCCc2ccc(OC)c(OC)c2)c1`, the Potency is reported as “inactive”.
For `NC(=O)c1cc(Br)cc2c3c([nH]c12)CCCC3`, the Potency was inconclusive: 14.1 µM [inhibitor, partial curve].
`Oc1cccc2ccc[n+](CC(O)Cn3c4ccccc4c4ccccc43)c12` (centres undefined) was tested, and the Potency was inconclusive: 10 µM [inhibitor, partial curve].
With `COc1ccc(-c2[nH]c(-c3ccc4c(c3)OCO4)nc2-c2ccccc2)cc1` the Potency was inconclusive: 12.6 µM [inhibitor, partial curve].
In the case of `O=[N+]([O-])c1cc([N+](=O)[O-])c(N2CCOCC2)cc1NCc1ccccc1`, the Potency is reported as inconclusive: 28.2 µM [inhibitor, single point].
In the case of `O=C(CSc1ccccn1)N/N=C/c1c[nH]c2ccccc12`, the Potency is reported as inconclusive: 8.91 µM [inhibitor, partial curve].
For `C=CCCCCCCCC(=O)OC`, the Potency was “inactive”.
For `O=C(c1ccc2c(c1)N(Cc1ccccc1)CCS2)N1CCCCC1`, the Potency was inconclusive: 17.8 µM [inhibitor, partial curve].
For `O=C(CC1Nc2cccc3cccc(c23)NC1=O)Nc1ccc(F)cc1` (centres undefined), the Potency was inconclusive: 10 µM [inhibitor, partial curve] and inconclusive: 3.55 µM [inhibitor, partial curve, poor fit].
`COC(=O)c1c(C)[nH]c(C(=O)/C=C/c2cccc(Cl)c2)c1C` was tested, and the Potency was inconclusive: 3.16 µM [inhibitor, full curve].
`CCOC(=O)c1cc(C#N)c(SCC(=O)Nc2ccc(C(C)=O)cc2)[nH]c1=O` was tested, and the Potency was inconclusive: 3.55 µM [inhibitor, full curve].
`Cc1ccc(Oc2c(C=O)c3ccccc3n2C)cc1` was tested, and the Potency was inconclusive: 8.91 µM [inhibitor, single point].
For `C/C(=N\Nc1nc2c(s1)CCCC2)c1ccc(Cl)cc1`, the Potency was active: 14.1 µM.
With `Cc1[nH]c2ccccc2c1/C=N/NC(=O)CCC(=O)Nc1ccccc1` the Potency was inconclusive: 7.94 µM [inhibitor, full curve].
In the case of `CNS(=O)(=O)c1cn(CC(=O)N2CCN(c3ccccc3OC)CC2)cc1S(=O)(=O)NC`, the Potency is reported as “inactive”.
With `Cc1ccc2c(CC(=O)N(Cc3cccc(Cl)c3)C3CCS(=O)(=O)C3)coc2c1` (centres undefined) the Potency was “inactive”.
`COC(=O)CC1C(=O)NCCN1C(=O)c1ccccc1` (centres undefined) was tested, and the Potency was “inactive”.
With `O=C(/C=C/c1ccccc1)Oc1cccc(C(=S)N2CCOCC2)c1` the Potency was inconclusive: 39.8 µM [inhibitor, single point].
`Cc1ccc(C(=O)CC2(O)C(=O)N(Cc3ccccc3)c3ccccc32)c(C)c1` (centres undefined) was tested, and the Potency was inconclusive: 35.5 µM [inhibitor, partial curve].
For `O=C(c1ccccc1)c1ccccc1N1C(=O)C=CC1=O`, the Potency was “inactive”.
`CCOCCn1cnc2sc(C(=O)Nc3nc(C)c(C(=O)OCC)s3)c(C)c2c1=O` was tested, and the Potency was “inactive”.
With `CC1(C)Cc2ccccc2-c2nnc(SCC(=O)N3CCN(c4ccccc4)CC3)n21` the Potency was inconclusive: 28.2 µM [inhibitor, partial curve].
`CC(=O)c1ccc(OCC(O)CN2CCN(Cc3ccc4c(c3)OCO4)CC2)cc1` (centres undefined) was tested, and the Potency was “inactive”.
For `Cc1cc(C)cc(-n2ccnc2SCC(=O)Nc2nc3ccc(C)cc3s2)c1`, the Potency was inconclusive: 8.91 µM [inhibitor, single point].
With `COc1ccc(OCC(=O)Nc2ccc(N3CCOCC3)cc2)cc1` the Potency was inconclusive: 17.8 µM [inhibitor, partial curve].
`Cc1c2cnn(CC(=O)N3CCN(c4ccc(F)cc4)CC3)c(=O)c2c(C)n1Cc1ccccc1F` was tested, and the Potency was inconclusive: 20 µM [inhibitor, single point].
With `Cc1nc(-c2ccccc2Cl)sc1C(=O)/C=C/N(C)C` the Potency was inconclusive: 12.6 µM [inhibitor, partial curve].
With `O=C(Nc1nnc(S(=O)(=O)N2CCc3ccccc32)s1)c1ccccc1Cl` the Potency was inconclusive: 2.51 µM [inhibitor, full curve].
`CCN(CC)S(=O)(=O)c1ccc(N)cc1` was tested, and the Potency was “inactive”.
For `COc1cccc(N2CCN(Cc3cc(=O)oc4cc(C)ccc34)CC2)c1`, the Potency was inconclusive: 15.8 µM [inhibitor, partial curve].
`CCCOC(=O)c1ccc(NC(=O)CCC(=O)OCC)cc1` was tested, and the Potency was inconclusive: 31.6 µM [inhibitor, partial curve, poor fit].
For `CCc1ccccc1NC(=O)CSc1ccsc1[N+](=O)[O-]`, the Potency was inconclusive: 14.1 µM [inhibitor, partial curve].
In the case of `COc1cccc2cc(S(=O)(=O)c3ccccc3)c(=Nc3ccc4c(c3)OCCO4)oc12`, the Potency is reported as inconclusive: 4.47 µM [inhibitor, full curve].
In the case of `CC(=O)N1CCN(C2=Nc3cccc4cccc2c34)CC1`, the Potency is reported as inconclusive: 15.8 µM [inhibitor, partial curve].
In the case of `Brc1ccc(-c2csc(-c3c[nH]c4ccccc34)n2)cc1`, the Potency is reported as inconclusive: 6.31 µM [inhibitor, partial curve].
In the case of `Cc1onc(C(=O)NN)c1-c1csc(COc2ccc(Cl)cc2)n1`, the Potency is reported as inconclusive: 39.8 µM [inhibitor, single point].
`Cn1c(-c2ccccc2)cnc1SCC(=O)NCc1ccco1` was tested, and the Potency was inconclusive: 14.1 µM [inhibitor, partial curve, poor fit].
